# Measured values as given in PubChem BioAssay (Tox21).
# “And” between values parts separate entries of the source, which are not always exact repeats. Equal entries are not always repeated. The shares of active, inactive and inconclusive entries below differ from those in the screen. For some assays here: Potencies beside an inconclusive call are fits to weak or partial responses and may not hold up. The source made the active and inactive calls. Unless noted, the call rests on the fitted dose curve; in most records, active means well fitted curve in the direction sought with a large enough effect in the repeat runs; inconclusive means weak or mixed curves; inactive means no such curve, though single readings can be large; an effect the other way counts as inactive or inconclusive.
# Columns and labels:
# [1] = biological target: Luciferin 4-monooxygenase (Photinus pyralis) (UniProt P08659); test: qHTS assay to identify small molecule inhibitors of firefly luciferase (AID 1224835); further: nearly all actives have a fitted effect of over 25% in size; further: potency means the concentration at half of the fitted maximal effect
# Method in brief: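 Quantitative HTS format; KM concentrations of both substrates. Purified P. pyralis FLuc activity quantified from luminescence images.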
# [2] = qHTS assay to identify small molecule antagonists of the estrogen related receptor (ERR) signaling pathway from Tox21 library - cell viability counter screen (AID 1224834); further: nearly all actives have a fitted effect of over 30% in size; further: potency means the concentration at half of the fitted maximal effect
# Method in brief: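 Viability readout (CellTiter-Fluor fluorescence, 30 min at 37 C) multiplexed with the ERR assay; cells treated 17.5 h at 37 C with compounds delivered in DMSO.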
# [3] = qHTS assay to identify small molecule agonists of H2AX (AID 1224845; active means well fitted activation curve with a large enough effect in the signal ratio in the repeat runs, not every such curve was filed as active; inconclusive means weak or mixed curves; the % refers to the signal ratio; further: potency means the concentration at half of the fitted maximal effect); conditions: CHO-K1 phospho-H2AX Ser139 HTRF, 3 h; activation (H2AX phosphorylation): at 154 µM (top of the series) unless noted
# Method in brief: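 Wild-type CHO-K1 cells plated overnight, then exposed 3 hr at 37C to compounds at 15 concentrations (0.76% DMSO). Lysed, then HTRF anti-pH2AX(S139)-cryptate/anti-H2AX-d2 detection after 24 hr at room temperature; emissions 665 and 620 nm.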
# [4] = qHTS assay to identify small molecule agonists of H2AX - cell viability counter screen (AID 1224847; calls by dose curve; further: potency means the concentration at half of the fitted maximal effect; nearly all actives have a fitted effect of over 30% in size)
# Method in brief: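 Wild-type CHO-K1 cells (10% FBS medium) were plated overnight at 37C, exposed to compounds at 15 concentrations for 3 hr at 37C (0.76% DMSO final), and viability was read as CellTiter-Glo luminescence after 30 min at room temperature.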
# [5] = qHTS RealTime-Glo MT Cell Viability Assay in HEK293 cells - 32 hour (AID 1224868); further: nearly all actives have a fitted effect of over 50% in size; further: potency means the concentration at half of the fitted maximal effect
# Method in brief: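 Assay medium contained NanoLuc luciferase plus cell-permeant prosubstrate, added with HEK293 cells at 600 cells/well. After 5 h at 37 C/5% CO2 compounds were added; plates stayed at 37 C for 40 h with serial luminescence reads.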
# [6] = qHTS RealTime-Glo MT Cell Viability Assay in HepG2 cells - 24 hour (AID 1224867); further: nearly all actives have a fitted effect of over 50% in size; further: potency means the concentration at half of the fitted maximal effect
# Method in brief: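 qHTS, HepG2, 600 cells/well, RealTime-Glo (NanoLuc + prosubstrate) added with cells; 5 h preincubation; DMSO compound addition; 37 C; luminescence at 0/8/16/24/32/40 h.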
# [7] = qHTS assay to identify small molecule agonists of the hypoxia (HIF-1) signaling pathway (AID 1224846; active means well fitted activation curve with a large enough effect in the signal ratio in the repeat runs, not every such curve was filed as active; inconclusive means weak or mixed curves; the % refers to the signal ratio; further: potency means the concentration at half of the fitted maximal effect; on activation: on the % scale 0 is the no-effect control and ±100 the full control effect); conditions: HRE-bla ME-180 cells, beta-lactamase ratio, 17 h; activation: at 76.8 µM (top of the series) unless noted
# Method in brief: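 Measured by blue/green FRET after loading CCF4-AM: beta-lactamase expressed from a hypoxia response element in ME-180 cells. Test agents were delivered in DMSO and left 17 hrs; cells had been plated 5 hrs earlier in low-serum (0.5% dialyzed FBS) medium.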
# [8] = qHTS assay to identify small molecule agonists of the constitutive androstane receptor (CAR) signaling pathway - cell viability counter screen (AID 1224836); further: nearly all actives have a fitted effect of over 45% in size; further: potency means the concentration at half of the fitted maximal effect
# Method in brief: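 HepG2 cells stably carrying hCAR and a CYP2B6-2.2kb reporter were plated 4 h, then given compounds at 15 concentrations plus PK11195 (final 0.75 uM). After 23 h at 37 C, viability was read by CellTiter-Fluor fluorescence.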
# [9] = qHTS assay to identify small molecule antagonists of the estrogen related receptor (ERR) signaling pathway from Tox21 library (AID 1224848); further: potency means the concentration at half of the fitted maximal effect; nearly all actives have a fitted effect of over 50% in size
# Method in brief: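 Screening used an ERR reporter line supplied by NTP, exposed for 18 h at 37 C to library compounds delivered in DMSO. Signal was luciferase luminescence developed with ONE-Glo at room temperature for 30 min.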
# [10] = qHTS assay to identify small molecule antagonists of the constitutive androstane receptor (CAR) signaling pathway - cell viability counter screen (AID 1224837); further: potency means the concentration at half of the fitted maximal effect; nearly all actives have a fitted effect of over 45% in size
# Method in brief: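 Fluorescence from CellTiter-Fluor served as the viability signal. Human hepatoma HepG2 cells stably bearing hCAR and CYP2B6-2.2kb received compound plus CITCO (50 nM final) for 23 hr.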
# [11] = qHTS assay to identify small molecule antagonists of the estrogen related receptor signaling pathway with the pleiotropic PPARgamma coactivator (PGC) from Tox21 10K library - cell viability counter screen (AID 1224840; active means well fitted cell-killing curve with a large enough effect in the repeat runs, not every such curve was filed as active; inconclusive means weak or mixed curves, or effect the other way; inactive means no such curve, though single readings can be large or run the other way; further: potency means the concentration at half of the fitted maximal effect; nearly all actives have a fitted effect of over 40% in size)
# Method in brief: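 Compounds in DMSO, alongside positive and negative controls, were pinned onto PGC/ERR cells (2,000 per well). Exposure lasted 17.5 hours at 37 C, followed by a 30-minute CellTiter-Fluor incubation and fluorescence reading.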
# [12] = qHTS assay to identify small molecule antagonists of the estrogen related receptor signaling pathway with the pleiotropic PPARgamma coactivator (PGC) from Tox21 10K library (AID 1224841; call rule not given here; further: on the % scale 0 is the no-effect control and ±100 the full control effect; actives are mostly falling curves and most rising ones were filed inactive; nearly all actives have a fitted effect of over 50% in size)
# Method in brief: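 Compound exposure ran 18 hours at 37 C in PGC/ERR cells (2,000/well) that had first rested 6 hours in a 37 C/5% CO2 incubator. Luciferase activity was then detected with One-Glo after a 30-minute room-temperature step.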
# [13] = qHTS assay to identify small molecule agonists of the hypoxia (HIF-1) signaling pathway - cell viability counter screen (AID 1224844; calls by dose curve)
# Method in brief: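 Luminescent ATP content (CellTiter-Glo, 30 min, room temperature) served as the viability measure in HRE-bla ME-180 cells exposed to compounds for 17 hrs in low-serum medium (0.5% dialyzed FBS).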
# Tags describe the fitted curve by direction and shape or compound fluorescence and quenching.
# UniProt P08659, sequence (P08659 whole entry, looked up): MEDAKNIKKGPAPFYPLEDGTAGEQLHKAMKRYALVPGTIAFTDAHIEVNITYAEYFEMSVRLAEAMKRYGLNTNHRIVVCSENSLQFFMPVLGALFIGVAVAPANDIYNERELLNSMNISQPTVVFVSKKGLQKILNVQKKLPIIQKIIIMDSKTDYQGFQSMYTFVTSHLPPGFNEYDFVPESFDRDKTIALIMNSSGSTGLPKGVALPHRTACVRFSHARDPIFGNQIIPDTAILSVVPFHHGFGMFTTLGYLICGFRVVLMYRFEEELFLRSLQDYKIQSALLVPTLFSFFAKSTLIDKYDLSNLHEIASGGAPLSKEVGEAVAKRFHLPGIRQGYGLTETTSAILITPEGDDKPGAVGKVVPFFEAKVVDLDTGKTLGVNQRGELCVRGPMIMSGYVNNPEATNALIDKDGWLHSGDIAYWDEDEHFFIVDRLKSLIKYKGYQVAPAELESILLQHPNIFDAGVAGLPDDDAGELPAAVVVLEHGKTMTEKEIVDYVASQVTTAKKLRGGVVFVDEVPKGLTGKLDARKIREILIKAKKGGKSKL
structure (smiles),measurement,setting,value
CCC(=O)OC/C=C/c1ccccc1,Potency,[1],"inconclusive: 71 µM [inhibitor, partial curve, poor fit] and inconclusive: 63.3 µM [inhibitor, partial curve]"
CCCCCCCCCCCCOC(=O)c1ccc(O)cc1,Potency,[2],"inconclusive: 77.5 µM [cytotoxic, single point]"
same,Potency,[3],"inconclusive: 128 µM [activator, single point]"
same,Potency,[4],"inconclusive: 128 µM [cytotoxic, single point]"
same,Potency,[5],"inconclusive: 49.3 µM [cytotoxic, partial curve]"
O=C(O)c1ccccc1Nc1cccc(C(F)(F)F)c1,Potency,[1],inconclusive: 79.6 µM [inhibitor]
COCCOC(=O)C1=C(C)NC(C)=C(C(=O)OC(C)C)C1c1cccc([N+](=O)[O-])c1 (centres undefined),Potency,[2],"inconclusive: 26.6 µM [cytotoxic, partial curve]"
same,Potency,[6],"inconclusive: 10.7 µM [falling, partial curve]"
same,Potency,[5],"inconclusive: 19 µM [cytotoxic, partial curve]"
CCCCCCCCCCCCO,Potency,[1],"inconclusive: 28.5 µM [inhibitor, full curve]"
C=C(C)C(=O)OCCOC(=O)C(=C)C,Potency,[2],inactive
same,Potency,[7],inactive
same,Potency,[6],inactive
CC(=O)Oc1ccc(C(c2ccc(OC(C)=O)cc2)c2ccccn2)cc1,Potency,[2],"inconclusive: 68.2 µM [cytotoxic, single point]"
same,Potency,[5],"inconclusive: 54.6 µM [cytotoxic, single point]"
CCCCOC(=O)C(=O)OCCCC,Potency,[1],"inconclusive: 79.6 µM [inhibitor, partial curve, poor fit]"
O=C(O)c1ccc(C(=O)O)cc1,Potency,[2],inactive
same,Potency,[7],inactive
Clc1ccc2cc3ccccc3cc2c1,Potency,[2],inactive
same,Potency,[3],inconclusive: 113 µM [fluorescent]
same,Potency,[7],active: 30.9 µM
same,Potency,[5],"inconclusive: 61.6 µM [rising, single point]"
Nc1cccc2c(=O)[nH][nH]c(=O)c12,Potency,[2],"inconclusive: 54.8 µM [cytotoxic, partial curve, poor fit]"
same,Potency,[3],"inconclusive: 28.5 µM [falling, partial curve]"
same,Potency,[5],inactive
CCC(C)CO (centres undefined),Potency,[1],"inconclusive: 70.1 µM [inhibitor, partial curve, poor fit]"
same,Potency,[8],inactive
Cc1oc(-c2ccccc2)nc1CCC(=O)c1ccc(CC2SC(=O)NC2=O)cc1 (centres undefined),Potency,[2],"inconclusive: 26.6 µM [cytotoxic, partial curve]"
same,Potency,[7],"inconclusive: 10.7 µM [falling, single point]"
same,Potency,[9],"inconclusive: 23.7 µM [inhibitor, partial curve]"
COc1cc(C(C)C)c2c(c1)S(=O)(=O)N(COc1cc(=O)n3cccc(OCCN4CCCCC4)c3n1)C2=O,Potency,[2],"inconclusive: 16.4 µM [cytotoxic, partial curve, poor fit]"
same,Potency,[3],"inconclusive: 27 µM [activator, single point]"
same,Potency,[7],"inconclusive: 2.93 µM [rising, full curve, poor fit]"
same,Potency,[5],"inconclusive: 4.14 µM [rising, partial curve]"
Cc1ccc(N=Nc2c(O)c(C(=O)O)cc3ccccc23)c(S(=O)(=O)O)c1,Potency,[1],"inconclusive: 38.7 µM [inhibitor, single point]"
same,Potency,[8],"inconclusive: 11.8 µM [cytotoxic, partial curve]"
same,Potency,[10],"inconclusive: 26.5 µM [cytotoxic, partial curve]"
same,Potency,[11],"inconclusive: 16.7 µM [cytotoxic, partial curve]"
same,Potency,[3],"inconclusive: 24.5 µM [cytotoxic, partial curve]"
same,Potency,[4],"inconclusive: 21.9 µM [cytotoxic, partial curve, poor fit]"
CN(C)c1ccc(C(c2ccccc2)c2ccc(N(C)C)cc2)cc1,Potency,[2],"inconclusive: 13.7 µM [cytotoxic, full curve]"
same,Potency,[7],"inconclusive: 49 µM [falling, partial curve]"
same,Potency,[5],"inconclusive: 24.5 µM [cytotoxic, partial curve]"
O=Cc1c2ccccc2c(Cl)c2ccccc12,Potency,[2],"inconclusive: 10.6 µM [cytotoxic, full curve]"
same,activation,[7],inconclusive: 11.4% [at 35.5 µM]
same,Potency,[5],"inconclusive: 19 µM [cytotoxic, partial curve]"
CC1(C)C(=O)N(Cl)C(=O)N1Br,Potency,[1],"inconclusive: 71 µM [inhibitor, single point]"
CO[C@@]1(NC(=O)C(C(=O)O)c2ccc(O)cc2)C(=O)N2C(C(=O)O)=C(CSc3nnnn3C)CO[C@@H]21 (some centres undefined),Potency,[1],"inconclusive: 24.5 µM [inhibitor, partial curve]"
CNc1ccc([N+](=O)[O-])cc1,Potency,[1],active: 40 µM
same,Potency,[8],"inconclusive: 48.7 µM [cytotoxic, partial curve]"
same,Potency,[10],active: 48.7 µM
same,Potency,[12],inactive
same,Potency,[13],"inconclusive: 1.95 µM [cytotoxic, single point]"
CC(=O)OCC=C(C)C,Potency,[1],inactive
CC(=O)/C=C/C1=C(C)CCCC1(C)C,Potency,[2],inactive
same,Potency,[6],inactive
CCc1oc2ccccc2c1C(=O)c1cc(I)c(O)c(I)c1,Potency,[2],"inconclusive: 33.5 µM [cytotoxic, single point]"
same,Potency,[7],inconclusive: 23.9 µM
same,Potency,[4],"inconclusive: 49.2 µM [cytotoxic, partial curve, poor fit]"
